Test results reported in the supplement of paper PMC8728848.
This is one part of the list.

Columns and labels:
Experiment in all cases: glycan array binding signal (z-score within array); higher = stronger binding
Conditions in all cases: glycan notation: IUPAC condensed, linker removed
[1] = biological target: Gal(b1-4)GlcNAc(b1-3)Gal(b1-4)GlcNAc(b1-3)Gal(b1-4)GlcNAc(b1-3)Gal(b1-4)GlcNAc(b1-3)Gal(b1-4)GlcNAc(b1-2)Man(a1-3)[Gal(b1-4)GlcNAc(b1-3)Gal(b1-4)GlcNAc(b1-3)Gal(b1-4)GlcNAc(b1-3)Gal(b1-4)GlcNAc(b1-3)Gal(b1-4)GlcNAc(b1-2)Man(a1-6)]Man(b1-4)GlcNAc(b1-4)[Fuc(a1-6)]GlcNAc
Procedure, shortened: (§1)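 The binding signal is a Z-score computed within each array and averaged over linkers. Arrays of the same protein sequence at different concentrations or buffers were also averaged together. Data originate from 3228 arrays in the Consortium for Functional Glycomics database, kept only where the protein sequence was available.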

[2] = biological target: Gal(b1-4)GlcNAc(b1-3)Gal(b1-4)GlcNAc(b1-3)Gal(b1-4)GlcNAc(b1-3)Gal(b1-4)GlcNAc(b1-3)Gal(b1-4)GlcNAc(b1-2)[Gal(b1-4)GlcNAc(b1-3)Gal(b1-4)GlcNAc(b1-3)Gal(b1-4)GlcNAc(b1-3)Gal(b1-4)GlcNAc(b1-3)Gal(b1-4)GlcNAc(b1-6)]Man(a1-6)[Gal(b1-4)GlcNAc(b1-3)Gal(b1-4)GlcNAc(b1-3)Gal(b1-4)GlcNAc(b1-3)Gal(b1-4)GlcNAc(b1-3)Gal(b1-4)GlcNAc(b1-2)Man(a1-3)]Man(b1-4)GlcNAc(b1-4)[Fuc(a1-6)]GlcNAc
Procedure, shortened: as §1

[3] = biological target: Gal(b1-4)GlcNAc(b1-3)Gal(b1-4)GlcNAc(b1-3)Gal(b1-4)GlcNAc(b1-3)Gal(b1-4)GlcNAc(b1-3)Gal(b1-4)GlcNAc(b1-3)Gal(b1-4)GlcNAc(b1-2)Man(a1-3)[Gal(b1-4)GlcNAc(b1-3)Gal(b1-4)GlcNAc(b1-3)Gal(b1-4)GlcNAc(b1-3)Gal(b1-4)GlcNAc(b1-3)Gal(b1-4)GlcNAc(b1-3)Gal(b1-4)GlcNAc(b1-2)Man(a1-6)]Man(b1-4)GlcNAc(b1-4)GlcNAc
Procedure, shortened: as §1

[4] = biological target: Gal(b1-4)GlcNAc(b1-3)Gal(b1-4)GlcNAc(b1-3)GalNAc
Procedure, shortened: as §1

[5] = biological target: Gal(b1-4)GlcNAc(b1-3)Gal(b1-4)GlcNAc(b1-3)[Gal(b1-4)GlcNAc(b1-3)Gal(b1-4)GlcNAc(b1-6)]GalNAc
Procedure, shortened: as §1

[6] = biological target: Gal(b1-4)GlcNAc(b1-3)Gal(b1-4)GlcNAc(b1-6)[Gal(b1-3)]GalNAc
Procedure, shortened: as §1

[7] = biological target: Gal(b1-4)GlcNAc(b1-3)Gal(b1-4)[Fuc(a1-3)]GlcNAc(b1-3)Gal(b1-4)[Fuc(a1-3)]GlcNAc
Procedure, shortened: as §1

[8] = biological target: Gal(b1-4)GlcNAc(b1-3)GalNAc
Procedure, shortened: as §1

[9] = biological target: Gal(b1-4)GlcNAc(b1-3)[Fuc(a1-3)GlcNAc(b1-6)]Gal(b1-4)Glc
Procedure, shortened: as §1

[10] = biological target: Gal(b1-4)GlcNAc(b1-3)[Gal(b1-4)GlcNAc(b1-6)]Gal(b1-4)GlcNAc
Procedure, shortened: as §1

[11] = biological target: Gal(b1-4)GlcNAc(b1-3)[GlcNAc(b1-6)]Gal(b1-4)GlcNAc
Procedure, shortened: as §1

[12] = biological target: Gal(b1-4)GlcNAc(b1-6)Gal(b1-4)GlcNAc
Procedure, shortened: as §1

[13] = biological target: Gal(b1-4)GlcNAc(b1-6)GalNAc
Procedure, shortened: as §1

[14] = biological target: Gal(b1-4)GlcNAc(b1-6)[Gal(b1-3)]GalNAc
Procedure, shortened: as §1

[15] = biological target: Gal(b1-4)GlcNAc(b1-6)[Gal(b1-4)GlcNAc(b1-3)]GalNAc
Procedure, shortened: as §1

Gal(b1-4)GlcNAc6P = biological target: Gal(b1-4)GlcNAc6P
Procedure, shortened: as §1

Gal(b1-6)Gal = biological target: Gal(b1-6)Gal
Procedure, shortened: as §1

Gal3S(b1-3)GalNAc = biological target: Gal3S(b1-3)GalNAc
Procedure, shortened: as §1

Gal3S(b1-3)GlcNAc = biological target: Gal3S(b1-3)GlcNAc
Procedure, shortened: as §1

[16] = biological target: Gal3S(b1-3)[Fuc(a1-4)]GlcNAc
Procedure, shortened: as §1

Gal3S(b1-4)Glc = biological target: Gal3S(b1-4)Glc
Procedure, shortened: as §1

Gal3S(b1-4)Glc6S = biological target: Gal3S(b1-4)Glc6S
Procedure, shortened: as §1

Gal3S(b1-4)GlcNAc = biological target: Gal3S(b1-4)GlcNAc
Procedure, shortened: as §1

[17] = biological target: Gal3S(b1-4)[Fuc(a1-3)]Glc6S
Procedure, shortened: as §1

[18] = biological target: Gal3S(b1-4)[Fuc(a1-3)]GlcNAc
Procedure, shortened: as §1

[19] = biological target: Gal3S(b1-4)[Fuc(a1-3)]GlcNAc6S
Procedure, shortened: as §1

Gal3S4S(b1-4)GlcNAc = biological target: Gal3S4S(b1-4)GlcNAc
Procedure, shortened: as §1

Gal3S6S(b1-4)GlcNAc = biological target: Gal3S6S(b1-4)GlcNAc
Procedure, shortened: as §1

Gal3S6S(b1-4)GlcNAc6S = biological target: Gal3S6S(b1-4)GlcNAc6S
Procedure, shortened: as §1

Gal4S(b1-4)GlcNAc = biological target: Gal4S(b1-4)GlcNAc
Procedure, shortened: as §1

Gal4S6S(b1-4)GlcNAc = biological target: Gal4S6S(b1-4)GlcNAc
Procedure, shortened: as §1

Gal6P(b1-4)GlcNAc = biological target: Gal6P(b1-4)GlcNAc
Procedure, shortened: as §1

Gal6S(b1-3)GlcNAc = biological target: Gal6S(b1-3)GlcNAc
Procedure, shortened: as §1

Gal6S(b1-3)GlcNAc6S = biological target: Gal6S(b1-3)GlcNAc6S
Procedure, shortened: as §1

Gal6S(b1-4)Glc = biological target: Gal6S(b1-4)Glc
Procedure, shortened: as §1

Gal6S(b1-4)Glc6S = biological target: Gal6S(b1-4)Glc6S
Procedure, shortened: as §1

Gal6S(b1-4)GlcNAc = biological target: Gal6S(b1-4)GlcNAc
Procedure, shortened: as §1

Gal6S(b1-4)GlcNAc6S = biological target: Gal6S(b1-4)GlcNAc6S
Procedure, shortened: as §1

GalNAc(a1-3)Gal = biological target: GalNAc(a1-3)Gal
Procedure, shortened: as §1

GalNAc(a1-3)GalNAc = biological target: GalNAc(a1-3)GalNAc
Procedure, shortened: as §1

[20] = biological target: GalNAc(a1-3)GalNAc(a1-3)Gal(a1-4)Gal(b1-4)GlcNAc
Procedure, shortened: as §1

[21] = biological target: GalNAc(a1-3)GalNAc(b1-3)Gal(a1-4)Gal(b1-4)Glc
Procedure, shortened: as §1

[22] = biological target: GalNAc(a1-3)GalNAc(b1-3)Gal(a1-4)Gal(b1-4)GlcNAc
Procedure, shortened: as §1

GalNAc(b1-3)Gal = biological target: GalNAc(b1-3)Gal
Procedure, shortened: as §1

[23] = biological target: GalNAc(b1-3)Gal(a1-4)Gal(b1-4)GlcNAc
Procedure, shortened: as §1

B1: rMpL (Macrolepiota procera) (protein)
chain: MSTQVSSGRTYKITNVIAGTVIDLSGEDNKSIIGYPYHSGKNQQWTFNWTGKAWTLRSASSGSYLGIEGTPAGGTRLVAVNDPFEWHIWRDEANENAFRIFVPFTNYNLDLSGYGDTTPGTPVQLWWTWEGLHQTWTIDRP
Which results are given for B1?
glycan array binding signal (z-score) [1]: 2.86; glycan array binding signal (z-score) [2]: 4.6; glycan array binding signal (z-score) [3]: 2.75; glycan array binding signal (z-score) [4]: 0.323; glycan array binding signal (z-score) [5]: 0.593; glycan array binding signal (z-score) [6]: 0.444; glycan array binding signal (z-score) [7]: 0.378; glycan array binding signal (z-score) [8]: 0.241; glycan array binding signal (z-score) [9]: 0.388; glycan array binding signal (z-score) [10]: 1.62; glycan array binding signal (z-score) [11]: 0.663; glycan array binding signal (z-score) [12]: 0.564; glycan array binding signal (z-score) [13]: 0.107; glycan array binding signal (z-score) [14]: 0.103; glycan array binding signal (z-score) [15]: 1.32; glycan array binding signal (z-score) (Gal(b1-4)GlcNAc6P): -0.602; glycan array binding signal (z-score) (Gal(b1-6)Gal): -0.301; glycan array binding signal (z-score) (Gal3S(b1-3)GalNAc): -0.327; glycan array binding signal (z-score) (Gal3S(b1-3)GlcNAc): -0.375; glycan array binding signal (z-score) [16]: -0.271; glycan array binding signal (z-score) (Gal3S(b1-4)Glc): -0.325; glycan array binding signal (z-score) (Gal3S(b1-4)Glc6S): -0.352; glycan array binding signal (z-score) (Gal3S(b1-4)GlcNAc): -0.326; glycan array binding signal (z-score) [17]: -0.194; glycan array binding signal (z-score) [18]: -0.312; glycan array binding signal (z-score) [19]: -0.333; glycan array binding signal (z-score) (Gal3S4S(b1-4)GlcNAc): -0.373; glycan array binding signal (z-score) (Gal3S6S(b1-4)GlcNAc): -0.312; glycan array binding signal (z-score) (Gal3S6S(b1-4)GlcNAc6S): -0.288; glycan array binding signal (z-score) (Gal4S(b1-4)GlcNAc): -0.407; glycan array binding signal (z-score) (Gal4S6S(b1-4)GlcNAc): -0.434; glycan array binding signal (z-score) (Gal6P(b1-4)GlcNAc): -0.34; glycan array binding signal (z-score) (Gal6S(b1-3)GlcNAc): -0.201; glycan array binding signal (z-score) (Gal6S(b1-3)GlcNAc6S): -0.439; glycan array binding signal (z-score) (Gal6S(b1-4)Glc): -0.233; glycan array binding signal (z-score) (Gal6S(b1-4)Glc6S): -0.362; glycan array binding signal (z-score) (Gal6S(b1-4)GlcNAc): -0.209; glycan array binding signal (z-score) (Gal6S(b1-4)GlcNAc6S): -0.32; glycan array binding signal (z-score) (GalNAc(a1-3)Gal): -0.326; glycan array binding signal (z-score) (GalNAc(a1-3)GalNAc): -0.265; glycan array binding signal (z-score) [20]: -0.392; glycan array binding signal (z-score) [21]: -0.304; glycan array binding signal (z-score) [22]: -0.288; glycan array binding signal (z-score) (GalNAc(b1-3)Gal): -0.189; glycan array binding signal (z-score) [23]: -0.097
